Reference: PubChem BioAssay AID1345083 (National Center for Advancing Translational Sciences (NCATS), 2018)
About 6,200 (6.6%) of roughly 94,000 compounds were called active. Inconclusive means that the source gave no clear call. Such entries were picked first, then a sample of the others. The call rests on the fitted dose curve; in most records, active means well fitted inhibition curve with a large enough effect; inconclusive means small, poorly fitted or top-dose-only effect; inactive means flat fitted curve, though single readings scatter. Potencies beside an inconclusive call are fits to weak or partial responses and may not hold up.

Assay: Cytotoxic Profiling in HEK 293 Cell Line of Diverse Libraries Using Quantitative High-Throughput Screening; further: nearly all actives have a fitted effect of over 60% in size
Settings: HEK 293 viability, ATP luminescence (CellTiter-Glo), 48-72 h; series mostly up to 115 µM
Outline: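 Luminescence from cellular ATP, measured with CellTiter-Glo, indicates HEK 293 viability. Cells plated at 250 cells/well are treated with compound for 48 or 72 hr at 37 degree Celsius before reagent addition.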
Potency means the concentration at half of the fitted maximal effect; tags describe the fitted curve by direction and shape.

Structure (SMILES) | Potency
O=C(NC1CCN(Cc2ccc(-c3ccsc3)cc2)C1)c1ccc(Cl)cc1 (stereo not given) | inactive
O=C(NCCc1ccccc1F)c1nc2sccn2c1Br | inconclusive: 56.2 µM [inhibitor, partial curve, poor fit]
O=C(Nc1ccc(F)c(Cl)c1)C1=NO[C@@H]2CN(CCc3ccccc3)C[C@H]12 | active: 112 µM
COCCc1noc(C2Cc3ccccc3N2C(=O)Nc2cc(C)cc(C)c2)n1 (stereo not given) | inconclusive: 89.1 µM [inhibitor, single point]
CCCNC(=O)Cn1c(C)ccc(NC(=O)Nc2ccc(OC)cc2)c1=O | inactive
O=C(CNC(=O)c1cccc(-c2ccc(C(F)(F)F)cc2)c1)NCc1ccc(F)cc1 | inconclusive: 10 µM [inhibitor, full curve, poor fit]
Cc1cc(C(=O)N2CCC[C@H](n3c(=O)n(CC4CC4)c4cccnc43)C2)n(C)n1 | inconclusive: 50.1 µM [inhibitor, partial curve, poor fit]
CC(=O)N1CCN(c2nc3c(s2)CC(C(=O)NCc2cc(F)cc(F)c2)CC3)CC1 (stereo not given) | inconclusive: 89.1 µM [inhibitor, single point]
COCC(=O)Nc1cc(C2CC2)nn1-c1ccccc1 | inactive
COCCN1CC(CO)C2(CCN(Cc3cccc(Cl)c3)CC2)C1 (stereo not given) | inconclusive: 50.1 µM [inhibitor, partial curve, poor fit]
CN(C)CC1(O)CCC2(CCN(S(=O)(=O)c3ccccc3)CC2)CC1 | inconclusive: 100 µM [inhibitor, single point]
Cc1noc(C)c1C(=O)NC1CCN(c2ccc3nnc(C4CC4)n3n2)C1 (stereo not given) | inactive
CN(C)C(=O)c1nc(-c2ccccc2)c2ccccn12 | inconclusive: 100 µM [inhibitor, partial curve, poor fit]
Cc1cc(C(=O)N2CCC3(CC2)N=C(CC(C)C)NC3=O)n(C)n1 | inactive
Clc1ccc(-c2cnc([C@@H]3COCCN3Cc3cnc4ccccc4c3)[nH]2)s1 | active: 89.1 µM
O=C(NCc1ccccc1)c1nc2cccnc2n(CCc2ccccc2)c1=O | inconclusive: 89.1 µM [inhibitor, single point]
CCOCCNC(=O)c1cc(-c2ccccc2C(F)(F)F)nc2c1cnn2C | inconclusive: 89.1 µM [inhibitor, partial curve, poor fit]
CC(C)CCNC(=O)c1ccc(CN2C(=O)NC3(CCOCC3)C2=O)cc1 | inactive
c1ccc(NCCn2cc(C3CCCNC3)nn2)cc1 (stereo not given) | inactive
COc1ccc(-c2nnc(C[C@@H]3C[C@@H](C(C)C)[C@H](CN4CCC(C(N)=O)CC4)C=C3C)o2)cc1 | inconclusive: 50.1 µM [inhibitor, partial curve, poor fit]
